Our source for the Kd values is PMC11551953 (2024).

This assay concerns the target bovine serum albumin (BSA), wild type (bovine, UniProt P02769).

Broadly, the Kd is the free concentration of one partner at which half of the binding sites on the other are occupied at equilibrium, for simple one-to-one binding. Low values mean tighter binding, high ones weaker binding.

Chain of UniProt P02769 (P02769 25-607): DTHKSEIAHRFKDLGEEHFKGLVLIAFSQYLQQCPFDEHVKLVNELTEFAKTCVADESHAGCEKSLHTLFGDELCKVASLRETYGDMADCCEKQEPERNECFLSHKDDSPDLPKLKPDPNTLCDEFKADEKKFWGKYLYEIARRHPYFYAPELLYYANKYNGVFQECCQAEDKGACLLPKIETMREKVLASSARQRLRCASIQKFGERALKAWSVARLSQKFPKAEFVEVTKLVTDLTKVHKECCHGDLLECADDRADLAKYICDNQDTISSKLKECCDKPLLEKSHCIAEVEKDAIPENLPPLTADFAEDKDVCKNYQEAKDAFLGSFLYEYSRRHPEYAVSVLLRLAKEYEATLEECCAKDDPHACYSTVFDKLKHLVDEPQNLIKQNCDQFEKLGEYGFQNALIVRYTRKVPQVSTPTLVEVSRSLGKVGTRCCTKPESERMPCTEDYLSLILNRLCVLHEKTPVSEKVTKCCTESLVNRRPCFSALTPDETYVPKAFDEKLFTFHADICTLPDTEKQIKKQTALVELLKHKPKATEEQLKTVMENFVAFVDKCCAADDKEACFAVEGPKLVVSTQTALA

B1: GFP(ELL)4 (designed binder)
chain: MELLELLELLELLAFNSHNVYITADKQKNGIKVNFTVRHNVEDGSVQLADHYQQNTPIGDGPVLLPDNHYLSTQTVLSKDPNEKRDHMVLHEYVNAAGITHGMDELYKGGSGGTMSKGEELFTGVVPILVELDGDVNGHKFSVRGEGEGDATNGKLTLKFICTTGKLPVPWPTLVTTLSYGVQCFSRYPDHMKQHDFFKSAMPEGYVQERTISFKDDGTYKTRAVVKFEGDTLVNRIELKGTDFKEDGNILGHKLEYN
With B1, the Kd came to 141 µM.
